According to article PMC11927755:

Test system: P10636
Assay: SDS-PAGE and Western blot of heat-, SDS- and reducing condition-stable multimers; 2 μM tau in aggregation buffer (10 mM sodium Hepes, 0.1 mM EDTA, 200 mM NaCl, 5 mM DTT, pH 7.6) with 75 μM arachidonic acid (aggregated) or ethanol vehicle (unaggregated), 6 h at RT; boiled in Laemmli buffer …
Settings: other: SDS-PAGE and Western blot of heat-

O-GlcNAc modified hT39 (Glc hT39, 2N3R tau) (no sequence given)
percent decrease of stable multimers relative to unmodified hT39, aggregated samples: 37% decrease, t = 5.505, p < 0.05 for aggregated samples
percent decrease of stable multimers relative to unmodified hT39, unaggregated samples: 72% decrease, t = 4.250, p < 0.05 for unaggregated samples
